Data published in PubChem BioAssay AID360 (National Center for Advancing Translational Sciences (NCATS), 2006).
In all, about 48,000 compounds went through this assay and about 550 (1.1%) were called active. Another 4% or so got no clear call; they are omitted. Cut-off read from the data, not from the text of the source: active = potency below about 15 µM; inconclusive = mostly about 16 µM to 33 µM; inactive = weaker than that. The list shows a part of the results.

molecular target: Lysosomal acid glucosylceramidase (Homo sapiens) (UniProt P04062); test: Glucocerebrosidase; conditions: purified enzyme, resorufin glucoside fluorescence (screen aimed at inhibitors), 20 min;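 note: the screen sought inhibitors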
Outline: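 Compounds titrated against 0.2 nM normal enzyme, 30 uM resorufin beta-D-glucopyranoside substrate, citrate/phosphate buffer with taurocholate and tween-20, pH 5.9. Reaction ran 20 min at room temperature; fluorescence (Ex 548/Em 600) gave AC50.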
Potency is the fitted concentration of half-maximal effect.

Sequence of UniProt P04062 (P04062 whole entry, looked up): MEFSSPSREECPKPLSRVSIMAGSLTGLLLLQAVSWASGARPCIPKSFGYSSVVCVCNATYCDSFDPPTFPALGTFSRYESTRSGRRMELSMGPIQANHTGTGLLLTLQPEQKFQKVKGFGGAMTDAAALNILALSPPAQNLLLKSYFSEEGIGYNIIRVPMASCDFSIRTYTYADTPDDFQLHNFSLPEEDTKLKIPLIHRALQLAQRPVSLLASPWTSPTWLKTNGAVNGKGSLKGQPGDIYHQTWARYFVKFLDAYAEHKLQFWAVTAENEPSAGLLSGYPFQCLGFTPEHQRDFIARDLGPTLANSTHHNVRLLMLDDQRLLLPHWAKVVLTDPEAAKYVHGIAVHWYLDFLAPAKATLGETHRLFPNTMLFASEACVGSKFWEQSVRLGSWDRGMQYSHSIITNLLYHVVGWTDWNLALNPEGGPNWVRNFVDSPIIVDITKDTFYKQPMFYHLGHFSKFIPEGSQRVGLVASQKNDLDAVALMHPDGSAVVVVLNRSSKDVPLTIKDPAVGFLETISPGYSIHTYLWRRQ

Potency, inactive:
Cc1oc(-c2ccc(Cl)cc2)nc1CN1CCC(C(=O)NCCCN2CCOCC2)CC1 > 76.9 µM
COc1ccc(C(=O)OC(C)CN2CCOCC2)cc1OC (stereo unspecified) > 76.9 µM
Clc1cc(Cl)c(OCc2nc(-c3ccccn3)no2)cc1Cl > 76.9 µM
CCCCN(CC)C(=O)CSc1cc(=O)n(C)c2ccccc12 > 76.9 µM
CC(C)N(Cc1nc(-c2ccccc2)no1)C(=O)CSc1ccccc1
CN(c1cccc(NC(=O)Cc2ccccc2)c1)S(C)(=O)=O > 76.9 µM
CCc1nc2oc3ccccc3c(=O)c2c(=O)n1CCOC > 76.9 µM
OCc1cn(-c2ccccc2)nc1-c1ccc2c(c1)OCCO2 > 76.9 µM
Nc1[nH]nc2nc(N3CCCC3)nc(-c3ccccc3)c12 > 76.9 µM
O=C(c1ccc(Cl)cc1)N1CCC(c2nc(-c3cccs3)no2)CC1 > 76.9 µM
O=c1nc(N2CCCCC2)nc2n1CCO2 > 76.9 µM
CCN1CCn2c1nc(N1CCCCC1)nc2=O > 76.9 µM
CCN1CCN(c2nc3c(c(=O)n(C)c(=O)n3C)n2CCSc2nccc(C)n2)CC1 > 76.9 µM
Brc1ccc(-c2nnc3n2-c2ccccc2CC3)cc1 > 76.9 µM
COc1ccc2c(c1OC)CN(C)CCc1cc3c(cc1C(O)C2)OCO3 (stereo unspecified) > 76.9 µM
NS(=O)(=O)c1cccc2cccnc12 > 76.9 µM
Cc1nc2nc(COc3ccccc3)[nH]n2c(=O)c1C > 76.9 µM
CN(C)C(=O)N1CCCC(C(=O)NCc2ccccc2Cl)C1 (stereo unspecified) > 76.9 µM
COc1cccc(N2C(=O)CC(N3CCC(c4nc5ccccc5[nH]4)CC3)C2=O)c1 (stereo unspecified) > 76.9 µM
CCN(CC)S(=O)(=O)c1ccc(-c2nnc(SCC(=O)c3ccc(OC)cc3)o2)cc1 > 76.9 µM
O=C(Cn1nnc(-c2ccc(Cl)cc2)n1)NC1CC2CCC1C2 (stereo unspecified) > 76.9 µM
COCCSc1nnc(NC(=O)COC)s1 > 76.9 µM
O=C(Nc1ccc2nc(-c3ccccc3)oc2c1)c1ccco1 > 76.9 µM
Cc1nn(-c2ccccn2)c2c1C(c1ccsc1)C1=C(CCCC1=O)N2 (stereo unspecified) > 76.9 µM
CCCc1nnc(SCC(=O)Nc2ccc(OC)cc2)n1N > 76.9 µM
C=CCN=C(NC#N)SCC(=O)c1cccc(OC)c1 > 76.9 µM
CC(C)CCOc1cccc(OCC(=O)N(C)C2CCS(=O)(=O)C2)c1 (stereo unspecified) > 76.9 µM
CCCNS(=O)(=O)c1ccc(CCC(=O)N2CCOCC2)cc1 > 76.9 µM
CCCn1c(SCC(=O)Nc2cccc(NC(C)=O)c2)nnc1C(C)C > 76.9 µM
CC1(C)Oc2ccc(C(=O)NC3CCCC3)cc2N(CC(=O)NC2CCCC2)C1=O > 76.9 µM
Cc1ccc(SCc2nc(-c3ccncc3)no2)cc1 > 76.9 µM
CCOCC(=O)Nc1ccc(F)c(F)c1 > 76.9 µM
O=C(CCCCn1c(=O)[nH]c2ccccc2c1=O)NCc1ccc2c(c1)OCO2 > 76.9 µM
O=C(O)[C@@H]1CSC2(CCSC2)N1 (stereo partly specified) > 76.9 µM
CCOc1ccc2nc(NC(=O)CN3CCN(c4ccccn4)CC3)sc2c1 > 76.9 µM
Cc1cc(=O)[nH]c(SCC(N)=O)c1C#N > 76.9 µM
CCOC(=O)C1CCCN(S(=O)(=O)c2cccc3cccnc23)C1 (stereo unspecified) > 76.9 µM
CC1=Nc2ccccc2N=C(NC(=O)CSc2nnnn2-c2ccccc2)C1c1ccccc1 (stereo unspecified) > 76.9 µM
COc1cc2c(cc1OC)-c1cc(NCc3ccccn3)nc(=O)n1CC2 > 76.9 µM
COc1cc(C(=O)NCc2nnc(SCC(=O)N3CCC(C)CC3)o2)cc(OC)c1OC > 76.9 µM
COCCN(CCOC)C(=O)c1c[nH]c2ccc(S(=O)(=O)N(C)c3ccc(F)cc3)cc2c1=O > 76.9 µM
CSCC[C@H](NC(=O)OC(C)(C)C)c1nnc(SCC(=O)Nc2ccc(C)cc2C)o1 > 76.9 µM
CCOC(=O)c1cc(NC(=O)SCC(=O)O)c(C)nc1C > 76.9 µM
CC1=C(C(=O)N2CCc3ccccc32)C2(CCC(C)CC2)OC1=O (stereo unspecified) > 76.9 µM
CS(=O)(=O)N1CCN(c2nc3ccccc3s2)CC1 > 76.9 µM
COc1ccc(CN2CC(C(=O)NCCCN3CCOCC3)CC2=O)cc1 (stereo unspecified) > 76.9 µM
CCOc1ccccc1Nc1nc2ccccc2[nH]1 > 76.9 µM
CCOC(=O)CSc1nnc(CNc2ccc(F)cc2)o1 > 76.9 µM
O=C(CN1CCOCC1)Nc1ncc(Br)cc1Br > 76.9 µM
Clc1ccc2c(c1)C1OCCC1C(c1ccco1)N2 (stereo unspecified) > 76.9 µM
CCOC(=O)Cn1nc(-c2ccccc2)nc1-c1ccccc1 > 76.9 µM
COc1ccc(OC)c(N=Cc2c(O)[nH]c3ccccc23)c1 > 76.9 µM
O=C(O)c1cccc2[nH]c(C(F)(F)F)nc12 > 76.9 µM
O=C(NCc1ccco1)c1cc(-c2ccco2)on1 > 76.9 µM
CCC(=O)Nc1ccccc1N1CCN(S(C)(=O)=O)CC1 > 76.9 µM
COc1ccc(NC(=O)c2ccco2)cc1N > 76.9 µM
Cc1nnc(SCC(C)C)[nH]c1=O > 76.9 µM
CS(=O)(=O)Nc1ccc(C(=O)NCc2ccccn2)cc1 > 76.9 µM
C=CCn1c(COc2ccccc2)nnc1SCC(=O)Nc1ccc(S(N)(=O)=O)cc1 > 76.9 µM
COc1ccc(CCNC(=O)C2CCCN(c3nn4c(=O)cc(C)nc4s3)C2)cc1OC (stereo unspecified) > 76.9 µM
Nc1c(C(=O)NCc2ccco2)nnn1Cc1ccccc1 > 76.9 µM
